{"source": "PubChem BioAssay AID463173", "about": "(ICCB-Longwood Screening Facility, Harvard Medical School, 2010)", "note": "Out of some 52,000 compounds screened, about 4,300 (8.3%) were called active. Rule as the data show it: active = survival mostly below about 52% (no sharp cut-off); inactive = mostly above about 56%. The list shows a part of the results.", "data": [{"system": "DeltatarO mutant", "assay": "growth inhibition of S. aureus wild type versus tarO mutant, primary screen, teichoic acid synthesis inhibitors, RN4220, OD600 (AID 463173)", "conditions": "OD600, 18 h, hits give low values, screened at 18.75 µg/mL (by protocol)", "values": [{"smiles": "Cc1nc(Oc2ccc(F)cc2Cl)c2oc3ccccc3c2n1", "survival": "inactive: 70%"}, {"smiles": "CCOC(=O)Cc1nn(Cc2ccccc2)c(=O)c2ccccc12", "survival": "inactive: 67%"}, {"smiles": "CCOc1ccccc1NC(=O)CN(C)S(=O)(=O)c1ccc2nc(C)sc2c1", "survival": "inactive: 97%"}, {"smiles": "O=C(NCc1ccco1)c1ccc2c(c1)N(Cc1ccc(Cl)cc1)C(=O)c1ccccc1S2=O", "note": "(configuration not stated)", "survival": "inactive: 116%"}, {"smiles": "Cc1ccc(NC(=O)Nc2ccc3snnc3c2)cc1C", "survival": "inactive: 66%"}, {"smiles": "CNC(=S)N(Cc1cccnc1)Cc1cc2cc(OC)ccc2[nH]c1=O", "survival": "inactive: 91%"}, {"smiles": "CCN(C(=O)C1CCCN(S(=O)(=O)c2c(C)noc2/C=C/N(C)C)C1)c1cccc(C)c1", "note": "(configuration not stated)", "survival": "inactive: 73%"}, {"smiles": "CCN(c1ccccc1)c1nnc(NC(=O)Nc2ccccc2F)s1", "survival": "inactive: 105%"}, {"smiles": "CCc1ccc(CN(Cc2ccco2)c2cnc(S(C)(=O)=O)nc2C(=O)Nc2ccccc2Cl)cc1", "survival": "inactive: 101%"}, {"smiles": "CC(NC1CCCC1)c1ccccc1", "note": "(configuration not stated)", "survival": "inactive: 84%"}, {"smiles": "Cc1cccc(OCC(=O)N2CCc3ccccc32)c1", "survival": "inactive: 87%"}, {"smiles": "CN1C(=O)CC(NCCc2ccc(S(N)(=O)=O)cc2)C1=O", "note": "(configuration not stated)", "survival": "inactive: 72%"}, {"smiles": "COC(=O)c1scc(-c2ccc(C)cc2)c1S(=O)(=O)N1CCN(c2cccc(OC)c2)CC1", "survival": "inactive: 54%"}, {"smiles": "CCc1nnc(SC(CC)C(=O)Nc2cccc(OC)c2)c2cc3oc(C)cc3n12", "note": "(configuration not stated)", "survival": "inactive: 70%"}, {"smiles": "Cc1ccc(Sc2c(C)nn(C(C)(C)C)c2OC(=O)C(C)(C)C)cc1", "survival": "active: -10%"}, {"smiles": "Fc1ccc(Nc2c3c(nc4ccccc24)CCC3)cc1", "survival": "inactive: 69%"}, {"smiles": "CCC(C(=O)Nc1cc(OC)cc(OC)c1)n1nc(-c2ccc(C)c(C)c2)ccc1=O", "note": "(configuration not stated)", "survival": "inactive: 75%"}, {"smiles": "Cc1nc2scc(C)n2c(=O)c1S(=O)(=O)Nc1ccc(N2CCOCC2)c(Cl)c1", "survival": "inactive: 80%"}, {"smiles": "CCOc1ccc(-c2nc(CSCC(=O)N3CCN(c4ccc(F)cc4)CC3)c(C)o2)cc1", "survival": "inactive: 89%"}, {"smiles": "CCOc1ccc(C(=O)NCCn2cc(SCC(=O)Nc3ccc4c(c3)OCCO4)c3ccccc32)cc1", "survival": "inactive: 80%"}, {"smiles": "CN1CCc2c(sc3c2C(=O)NC(c2ccc(OC(=O)c4ccc(C(C)(C)C)cc4)cc2)N3)C1", "note": "(configuration not stated)", "survival": "inactive: 50%"}, {"smiles": "Cc1ccc(S(=O)(=O)Nc2cc3c(cc2NCc2ccccc2)n(C)c(=O)n3C)c(C)c1", "survival": "inactive: 60%"}, {"smiles": "O=C(CCc1nc(CN2CCN(S(=O)(=O)c3ccc(Cl)cc3)CC2)no1)N1CCCCC1", "survival": "inactive: 113%"}, {"smiles": "Cc1cccc(Cn2c(SCc3ccc(C(=O)NCCc4ccccc4)cc3)nc3ccncc32)c1", "survival": "inactive: 81%"}, {"smiles": "CCc1cccc(C)c1NC(=O)Cn1ccn(-c2cccc(OC)c2)c(=O)c1=O", "survival": "inactive: 72%"}, {"smiles": "COc1ccc(-c2cc3nc(C)c(CCC(=O)Nc4ccccc4C(C)=O)c(C)n3n2)c(OC)c1", "survival": "inactive: 91%"}, {"smiles": "COc1ccc(-n2c(=O)c3c(c4cc(OC)ccc4n3C)n(Cc3cccc(OC)c3)c2=O)cc1", "survival": "inactive: 91%"}, {"smiles": "O=C(CCC1N=C2c3ccccc3N=C(SCc3ccc(F)cc3)N2C1=O)NCc1ccc(F)cc1", "note": "(configuration not stated)", "survival": "inactive: 75%"}, {"smiles": "Fc1cccc(-n2ncc3c2ncn2nc(COc4ccc(Cl)cc4)nc32)c1", "survival": "inactive: 111%"}, {"smiles": "CCCC1=Nc2cc(C(=O)NCc3ccc(OC)cc3)ccc2Sc2ccc(C)cc21", "survival": "inactive: 70%"}, {"smiles": "COc1ccc(C(C(=O)NC2CCCC2)N(Cc2ccc(C)cc2)C(=O)c2ccn[nH]2)cc1OC", "note": "(configuration not stated)", "survival": "inactive: 104%"}, {"smiles": "CCN1CCN(CC(=O)NC23CC4CC(CC(C4)C2)C3)CC1", "survival": "inactive: 80%"}, {"smiles": "O=C(CSCc1cccc(F)c1)NCc1ccccc1", "survival": "inactive: 78%"}, {"smiles": "Cc1ccc(N2CCN(C(=O)c3c(C)oc4ncn(CC(C)C)c(=O)c34)CC2)c(C)c1", "survival": "inactive: 88%"}, {"smiles": "CCC(C)NC(=O)c1cc(-c2cccc(OC)c2)on1", "note": "(configuration not stated)", "survival": "active: 32%"}, {"smiles": "Cc1ccc(C)c(N2CCN(C(=O)C3CCN(c4nc5ccc(C)cc5[nH]4)CC3)CC2)c1", "survival": "inactive: 94%"}, {"smiles": "Cc1cccc(NC(=O)CSc2ncc3c(n2)-c2ccccc2N(Cc2ccc(F)cc2)S3(=O)=O)c1C", "survival": "inactive: 68%"}, {"smiles": "Cc1cc(-c2ccc(C)c(S(=O)(=O)N3CCN(c4cccc(C(F)(F)F)c4)CC3)c2)on1", "survival": "inactive: 86%"}, {"smiles": "Cc1cccc(CCNC(=O)c2ccc3c(c2)N(Cc2ccccc2F)C(=O)c2ccccc2S3)c1", "survival": "inactive: 83%"}, {"smiles": "Cc1ccc(Oc2c(C(F)(F)F)oc3c(CN4CCC(C)CC4)c(O)ccc3c2=O)cc1", "survival": "inactive: 79%"}, {"smiles": "CCc1cccc(NC(=O)CCC(=O)N2CCSc3ccccc32)c1", "survival": "inactive: 57%"}, {"smiles": "CN(C)c1ccc(-c2nc(-c3cc4cc(Cl)ccc4oc3=O)cs2)cc1", "survival": "inactive: 89%"}, {"smiles": "COc1cc(NC(=O)Cn2c(=O)n(Cc3ccco3)c(=O)c3sc4ccccc4c32)cc(OC)c1", "survival": "inactive: 79%"}, {"smiles": "COCCCNc1oc(/C=C/c2cc(OC)c(OC)c(OC)c2)nc1C#N", "survival": "inactive: 75%"}, {"smiles": "Cc1ccccc1OCC(=O)OC1CCCN(C)C1", "note": "(configuration not stated)", "survival": "inactive: 90%"}, {"smiles": "CC(/C=N/NC(=O)Cc1cccn1C)=C\\c1ccco1", "survival": "inactive: 100%"}, {"smiles": "O=C(CSc1nnc(-c2cccs2)o1)Oc1ccccc1", "survival": "inactive: 69%"}, {"smiles": "COc1ccccc1NC(=O)NC1(C(=O)N2CCCCC2)CCCCC1", "survival": "inactive: 85%"}, {"smiles": "CCc1ccc(C(=O)c2cn(CC(=O)Nc3cc(C)ccc3C)c3nc(C)ccc3c2=O)cc1", "survival": "inactive: 97%"}, {"smiles": "CCN(CC)C(=O)c1c(-c2ccccc2)c(-c2ccccc2)nn(C)c1=O", "survival": "inactive: 48%"}, {"smiles": "CCOc1ccc(C(=O)Nc2ccc3nc(SCCOc4ccccc4)sc3c2)cc1", "survival": "inactive: 97%"}, {"smiles": "CCc1ccc(-n2cnc3cc(C(=O)NCc4ccc(C)cc4)ccc32)cc1", "survival": "inactive: 57%"}, {"smiles": "CCOC(=O)c1c(C)[nH]c(CCC(=O)NCc2ccc(CC)cc2)c1C", "survival": "inactive: 96%"}, {"smiles": "CC(=O)c1cccc(NC(=O)Cn2nc(C)n3cccc3c2=O)c1", "survival": "inactive: 104%"}, {"smiles": "O=C(CSc1nnc(-c2ccccc2)o1)c1cccc([N+](=O)[O-])c1", "survival": "inactive: 135%"}, {"smiles": "CCN(CC)CCCNC(=O)c1ccc(-c2nc(CN3CCc4ccccc43)c(C)o2)cc1", "survival": "inactive: 65%"}, {"smiles": "O=C(Cn1ncc2c3ccccc3n(Cc3ccc(Cl)cc3)c2c1=O)NCc1ccccn1", "survival": "inactive: 93%"}]}]}
